From the supplement of paper PMC12217912
The other results are listed elsewhere or left out. The full chains were built here from the parent and the listed change. Values near 0.05 are background.

B1: TEV protease; numbered along this chain (parent)
chain: MGESLFKGPRDYNPISSSICHLTNESDGHTTSLYGIGFGPFIITNKHLFRRNNGTLVVQSLHGVFKVKDTTTLQQHLVDGRDMIIIRMPKDFPPFPQKLKFREPQREERICLVTTNFQTKSMSSMVSDTSCTFPSGDGIFWKHWIQTKDGQCGSPLVSTRDGFIVGIHSASNFTNTNNYFTSVPKNFMELLTNQEAQQWVSGWRLNADSVLWGGHKVFMVKPEEPFQPVKEATQL

Variants of: B1
Test: raw area under fraction-flipped curve 0-4 h after induction (AUC4h, not background-subtracted), DNA-recorder readout of cleavage of the substrate (dimensionless); higher = more cleavage of the substrate by the protease variant
Conditions: temperature: 34 °C; time window: 0-4 h after rhamnose induction
Description: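 In vivo DNA recorder in E. coli TOP10(DE3) ΔrhaA at 34 °C. Each TEVp single-site mutant (parent TEVp 0) is paired with a single-site variant of the 7-mer TEVs (canonical ENLYFQ|S). The substrate sits between flexible linkers in a Bxb1-sfGFP-TEVs-SsrA fusion, so cleavage stabilises Bxb1 and speeds flipping of a recombination array, read by NGS. The value is the raw area under the fraction-flipped curve over 0-4 h after rhamnose induction (AUC4h), with ≥20 reads per time point. It is not background-subtracted; inactive controls average about 0.047.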
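Further: Bxb1 expression induced with 0.2% (w/v) L-rhamnose at OD600 near 0.5, cultures sampled hourly, flipped fraction per protease–substrate barcode pair counted by paired-end Illumina sequencing.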

Variant	area with substrate ENLYFCS	area with substrate ENLYFES	area with substrate ENLYFFS	area with substrate ENLYFGS	area with substrate ENLYFIS	area with substrate ENLYFKS	area with substrate ENLYFLS	area with substrate ENLYFMS	area with substrate ENLYFNS	area with substrate ENLYFRS	area with substrate ENLYFSS	area with substrate ENLYFYS	area with substrate ENLYFDS	area with substrate ENLYFHS	area with substrate ENLYFPS	area with substrate ENLYFTS	area with substrate ENLYFVS	area with substrate ENLYFWS
M125K	0.0592	0.0649	0.0836	0.0811	0.0623	0.0661	0.0671	0.0619	0.0665	0.0481	0.0625	0.0588	–	–	–	–	–	–
R106H	0.0587	0.0604	0.075	–	0.056	0.0677	–	0.0901	0.0641	0.0555	0.073	0.053	0.052	0.0636	0.0651	0.0706	0.0565	0.0502
F187C	0.0536	0.0593	–	–	0.0501	–	0.076	0.0736	–	–	0.102	–	–	0.0502	–	0.0599	–	–
F187N	0.014	0.0453	0.0537	–	0.0571	0.0531	0.0442	0.032	0.0771	0.0413	–	–	–	–	0.0493	0.0858	–	0.0639
S26G	0.0674	0.0672	0.0753	–	0.0483	–	–	0.0565	–	–	–	–	0.0477	–	–	–	0.0554	–
K148I	0.0494	0.0484	–	–	0.0613	0.0684	–	–	0.0523	–	–	0.052	–	0.0546	–	–	–	0.0503
F92A	0.0592	0.0675	0.0622	0.0468	0.0664	–	–	0.0695	–	0.0612	0.0561	0.0339	–	–	0.0494	0.0627	–	–
F117K	0.0599	–	0.0686	–	0.0534	–	0.0593	0.0762	0.0645	0.0633	0.0637	0.0613	0.0557	0.0671	0.0541	0.0597	0.0608	0.0611
S127Y	0.0633	–	–	–	0.0494	–	0.0498	0.0584	–	0.0756	0.06	–	–	–	–	–	–	0.0584
K68E	0.0676	–	0.0895	0.0537	0.0538	0.0642	0.0722	0.0681	0.0527	0.0622	0.05	0.0357	0.0708	–	0.0596	0.0685	0.0699	0.0606
W141Q	0.0586	0.0529	0.0577	–	0.0547	0.0324	0.0518	0.0671	–	0.0469	0.0511	0.0449	–	–	0.0445	0.0648	–	0.0633
L190G	0.0527	0.0693	0.0663	–	0.0644	–	–	0.0657	–	0.0584	–	–	–	0.0609	0.0678	–	–	0.0778
S130C	0.0615	–	–	–	–	–	–	0.0591	–	–	0.0584	–	0.0566	–	–	0.0638	0.0563	–
K142M	0.0602	0.0782	0.0691	–	0.0568	0.0642	0.0627	0.064	–	0.0634	–	–	–	0.062	0.0583	0.0541	–	–
D82Q	0.0661	0.0542	–	–	0.059	–	0.0599	0.047	0.0784	–	–	–	–	0.0731	0.0641	0.0453	0.0655	–
P155C	0.0624	0.0637	–	0.0266	0.0544	0.0549	–	0.0631	0.0543	0.049	0.0473	–	–	0.0838	0.0457	0.0494	–	0.0409
S201I	0.0511	0.0524	0.0731	–	0.0459	0.0625	–	0.0602	0.0566	–	0.0589	0.0471	–	–	0.0489	0.0747	0.0562	0.0401
S201L	0.0507	–	–	0.0552	0.0429	0.0624	0.097	0.0477	0.0417	0.0423	–	0.0557	–	0.0722	–	0.0595	–	0.062
K46Q	0.0502	0.0616	0.0672	–	0.0526	0.0485	0.0486	0.0587	0.0632	–	0.0767	0.039	–	–	0.0497	–	0.0641	–
N52H	0.0526	0.0438	–	0.0652	0.0552	0.0646	–	0.0479	0.0614	0.0608	–	–	–	0.0491	0.081	–	–	–
G28N	0.0533	0.0696	0.0617	–	0.0562	0.0577	0.0708	–	0.0678	0.0676	0.0643	0.0648	0.0553	0.0818	0.0592	0.0535	0.0446	–
F163L	0.0714	–	0.0707	0.0625	0.053	0.068	0.0662	–	0.0732	0.0495	–	0.0434	–	–	–	0.0556	0.062	0.0745
R109H	0.061	0.0673	0.058	–	0.0606	–	–	0.073	0.0695	0.0592	0.0784	0.0594	–	0.0213	0.0561	0.0831	–	–
A196M	0.0546	0.0527	0.0742	–	0.0631	0.059	0.0539	0.0712	0.0748	0.0552	0.0464	0.0522	0.0591	0.0529	0.0579	0.0421	–	–
V126R	0.0616	–	0.0678	–	0.062	0.064	0.0566	0.0543	0.0404	0.0683	–	0.065	0.0577	–	0.0586	0.0611	0.0571	0.0553
T30G	0.0617	0.0621	–	–	0.0431	0.0451	–	0.0624	0.0603	0.0386	0.0595	0.0521	0.0594	–	0.0558	0.0994	–	–
K185F	0.0568	0.0544	0.078	0.0691	0.0628	–	0.0781	0.0706	0.0699	0.0408	0.0692	–	0.0609	–	0.057	–	–	0.0625
K66V	0.0455	–	0.0571	–	0.0583	–	0.0629	–	0.0897	0.0869	–	–	–	0.0304	–	–	–	0.0573
L22R	0.0562	0.0378	0.048	0.059	0.0496	0.0307	0.0453	0.0461	–	0.0424	0.0474	0.0543	–	0.0182	0.0434	–	–	0.0379
R81L	0.053	0.0677	0.0798	–	0.0659	–	0.0257	0.0695	0.0414	0.0663	–	0.0536	–	–	0.0679	0.0486	0.0517	0.0419
